# Test results taken from the supplement of paper PMC4604168 (melanoma cell lines).
# The list shows a part of the results. Single values are uncertain, as repeats are few or missing.
# What was measured:
# Assay in all cases: cell count relative to DMSO control; melanoma cells; higher = more viable cells
# Conditions in all cases: library dose: low library concentration; 72 h
# [1] = test system: COLO792
# [2] = test system: COLO800
# [3] = test system: COLO829
# [4] = test system: G361
# [5] = test system: IPC-298
# [6] = test system: IST-MEL1
# [7] = test system: LB2518-MEL
# [8] = test system: LOXIMVI
# [9] = test system: MEL-HO
# 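Further: cell number obtained by counting DAPI-stained nuclei in high-throughput microscope images with image analysis software, screen run in 1,536-well plates.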
Compound,cell count [1],cell count [2],cell count [3],cell count [4],cell count [5],cell count [6],cell count [7],cell count [8],cell count [9]
"O=C(Nc1cc(C(F)(F)F)cc(C(F)(F)F)c1)c1cc(Cl)ccc1O + O=C(Nc1cccc(Cl)c1)Nc1ncc(CCNc2ncnc3ccsc23)s1 [SNS314] (first compound 0.016 µM, partner dose 0.0008 µM)",88.3%,84.3%,102%,92.3%,96.5%,95.9%,89.4%,69.8%,99.6%
"O=C(O)[C@@H]1[O][Sb](=[O])([O][Sb]2(=[O])[O][C@H]([C@H](O)CO)[C@H](O)[C@H](C(=O)O)[O]2)[O][C@H]([C@H](O)CO)[C@@H]1O (some centres not stated) [stibogluconate] + COc1ccc2c(c1)CCC1C2CCC2(C)C(NCCCCCCN3C(=O)C=CC3=O)CCC12 [U73122] (first compound 2 µM, partner dose 0.4 µM)",115%,140%,127%,85%,94.9%,107%,97%,99.2%,105%
"O=C(O)c1ccc2c(c1)nc(Nc1cccc(Cl)c1)c1ccncc12 + Oc1cc(-c2nc(-c3ccccc3)[nH]c2-c2ccncc2)ccc1Cl [L779450] (first compound 0.4 µM, partner dose 0.2 µM)",92.9%,76.4%,123%,101%,82.1%,96.4%,113%,83.1%,83.7%
"O=C(O)[C@@H]1[O][Sb](=[O])([O][Sb]2(=[O])[O][C@H]([C@H](O)CO)[C@H](O)[C@H](C(=O)O)[O]2)[O][C@H]([C@H](O)CO)[C@@H]1O (some centres not stated) [stibogluconate] + CCN(CC)CCCCNc1ncc2cc(-c3cc(OC)cc(OC)c3)c(NC(=O)NC(C)(C)C)nc2n1 [PD173074] (first compound 2 µM, partner dose 0.1 µM)",96.5%,102%,104%,90.8%,100%,100%,96%,95.6%,96%
"Cn1nnc2c(C(N)=O)ncn2c1=O [temozolomide] + C=CCn1c(=O)c2cnc(Nc3ccc(N4CCN(C)CC4)cc3)nc2n1-c1cccc(C(C)(C)O)n1 [MK1775] (first compound 2 µM, partner dose 0.02 µM)",85.5%,93.7%,109%,107%,84.2%,84.6%,95.6%,121%,94.1%
"O=C(O)c1ccc2c(c1)nc(Nc1cccc(Cl)c1)c1ccncc12 + CC1(C)NC(=O)N(c2ccc([N+](=O)[O-])c(C(F)(F)F)c2)C1=O [nilutamide] (first compound 0.4 µM, partner dose 1 µM)",95.2%,89%,105%,84.7%,92.1%,98.1%,97.3%,76.9%,74.7%
"O=C(O)[C@@H]1[O][Sb](=[O])([O][Sb]2(=[O])[O][C@H]([C@H](O)CO)[C@H](O)[C@H](C(=O)O)[O]2)[O][C@H]([C@H](O)CO)[C@@H]1O (some centres not stated) [stibogluconate] + CN(NC(=O)CC(=O)NN(C)C(=S)c1ccccc1)C(=S)c1ccccc1 [STA4783] (first compound 2 µM, partner dose 0.006 µM)",97.1%,92.8%,71.1%,103%,94.2%,94.7%,88.2%,85%,102%
"O=C(O)c1ccc2c(c1)nc(Nc1cccc(Cl)c1)c1ccncc12 + CN(NC(=O)CC(=O)NN(C)C(=S)c1ccccc1)C(=S)c1ccccc1 [STA4783] (first compound 0.4 µM, partner dose 0.006 µM)",76.2%,47.2%,64.1%,89.6%,101%,83.6%,67.7%,82.6%,91.5%
"O=C(O)c1ccc2c(c1)nc(Nc1cccc(Cl)c1)c1ccncc12 + O=C(O)c1ccc(-c2c[nH]c3ncc(-c4ccccc4)cc23)cc1C1CCCC1 [GSK650394] (first compound 0.4 µM, partner dose 0.16 µM)",98%,89.7%,92%,97%,92.9%,93.6%,101%,97.5%,75.3%
"O=C(Nc1cc(C(F)(F)F)cc(C(F)(F)F)c1)c1cc(Cl)ccc1O + O=C1NC(=O)/C(=C/c2ccc(-c3ccc(F)cc3O)o2)S1 [AS252424] (first compound 0.016 µM, partner dose 1 µM)",103%,99.9%,101%,102%,92.7%,103%,88.2%,165%,99.1%
"O=C(O)[C@@H]1[O][Sb](=[O])([O][Sb]2(=[O])[O][C@H]([C@H](O)CO)[C@H](O)[C@H](C(=O)O)[O]2)[O][C@H]([C@H](O)CO)[C@@H]1O (some centres not stated) [stibogluconate] + C[C@@H]1CCN(C(=O)CC#N)C[C@@H]1N(C)c1ncnc2[nH]ccc12 [CP690550] (first compound 2 µM, partner dose 1 µM)",99.5%,71.9%,130%,114%,106%,102%,98.4%,128%,110%
"Cc1cc(N2CCOCC2)cc2[nH]c(-c3c(NC[C@@H](O)c4cccc(Cl)c4)cc[nH]c3=O)nc12 + O=C(Nc1cccc(Cl)c1)Nc1ncc(CCNc2ncnc3ccsc23)s1 [SNS314] (first compound 0.2 µM, partner dose 0.0008 µM)",67.4%,49.3%,109%,93.9%,86.9%,97.5%,88.2%,67.4%,95.5%
"Cn1nnc2c(C(N)=O)ncn2c1=O [temozolomide] + Cc1cc(N2CCOCC2)cc2[nH]c(-c3c(NC[C@@H](O)c4cccc(Cl)c4)cc[nH]c3=O)nc12 [BMS536924] (first compound 2 µM, partner dose 0.2 µM)",88.2%,49.7%,96.8%,89.7%,84.2%,94.8%,106%,43.6%,93.8%
"O=C(O)[C@@H]1[O][Sb](=[O])([O][Sb]2(=[O])[O][C@H]([C@H](O)CO)[C@H](O)[C@H](C(=O)O)[O]2)[O][C@H]([C@H](O)CO)[C@@H]1O (some centres not stated) [stibogluconate] + O=C(Nc1cccc(Cl)c1)Nc1ncc(CCNc2ncnc3ccsc23)s1 [SNS314] (first compound 2 µM, partner dose 0.0008 µM)",103%,91.5%,115%,101%,103%,101%,98.3%,78.9%,97.8%
"O=C(O)[C@@H]1[O][Sb](=[O])([O][Sb]2(=[O])[O][C@H]([C@H](O)CO)[C@H](O)[C@H](C(=O)O)[O]2)[O][C@H]([C@H](O)CO)[C@@H]1O (some centres not stated) [stibogluconate] + CC(C)CCN1c2nc(Nc3cc(F)c(O)c(F)c3)ncc2N(C)C(=O)C1C [BID1870] (first compound 2 µM, partner dose 0.2 µM)",95.3%,105%,102%,112%,97.1%,109%,89%,128%,97.2%
"O=C(O)c1ccc2c(c1)nc(Nc1cccc(Cl)c1)c1ccncc12 + COc1ccc(COc2ccc(Cc3cnc(N)nc3N)cc2OC)cc1 [GW2580] (first compound 0.4 µM, partner dose 1 µM)",88.2%,77.6%,76.9%,96.4%,91.1%,116%,111%,55.5%,94.6%
"O=C(O)c1ccc2c(c1)nc(Nc1cccc(Cl)c1)c1ccncc12 + CCCCCCCCCCCC1=C(O)C(=O)C=C(O)C1=O [Embelin] (first compound 0.4 µM, partner dose 1.2 µM)",114%,128%,81.6%,96.2%,91.7%,103%,101%,64%,88.3%
"O=C(O)[C@@H]1[O][Sb](=[O])([O][Sb]2(=[O])[O][C@H]([C@H](O)CO)[C@H](O)[C@H](C(=O)O)[O]2)[O][C@H]([C@H](O)CO)[C@@H]1O (some centres not stated) [stibogluconate] + Cn1cc(/C=C2\C(=O)Nc3cccnc32)c2ccccc21 [GW441756] (first compound 2 µM, partner dose 0.4 µM)",106%,91.7%,91.2%,103%,102%,108%,112%,115%,102%
